From publication PMC4336329 (PLoS ONE, 2015)
Screen size: about 310,000 compounds; about 14,000 (4.5%) showed an effect of 50% or more. The effect is printed as a negative number. The list shows a part of the results.

The compounds below were run against human ether-à-go-go-related gene (hERG) potassium channel (human, UniProt Q12809) (assay: primary screen, population patch clamp on CHO cells stably expressing hERG).
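Note: peak tail current of the secondary pulse compared with the same well before compound.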

human ether-à-go-go-related gene (hERG) potassium channel, sequence (Q12809 whole entry, looked up): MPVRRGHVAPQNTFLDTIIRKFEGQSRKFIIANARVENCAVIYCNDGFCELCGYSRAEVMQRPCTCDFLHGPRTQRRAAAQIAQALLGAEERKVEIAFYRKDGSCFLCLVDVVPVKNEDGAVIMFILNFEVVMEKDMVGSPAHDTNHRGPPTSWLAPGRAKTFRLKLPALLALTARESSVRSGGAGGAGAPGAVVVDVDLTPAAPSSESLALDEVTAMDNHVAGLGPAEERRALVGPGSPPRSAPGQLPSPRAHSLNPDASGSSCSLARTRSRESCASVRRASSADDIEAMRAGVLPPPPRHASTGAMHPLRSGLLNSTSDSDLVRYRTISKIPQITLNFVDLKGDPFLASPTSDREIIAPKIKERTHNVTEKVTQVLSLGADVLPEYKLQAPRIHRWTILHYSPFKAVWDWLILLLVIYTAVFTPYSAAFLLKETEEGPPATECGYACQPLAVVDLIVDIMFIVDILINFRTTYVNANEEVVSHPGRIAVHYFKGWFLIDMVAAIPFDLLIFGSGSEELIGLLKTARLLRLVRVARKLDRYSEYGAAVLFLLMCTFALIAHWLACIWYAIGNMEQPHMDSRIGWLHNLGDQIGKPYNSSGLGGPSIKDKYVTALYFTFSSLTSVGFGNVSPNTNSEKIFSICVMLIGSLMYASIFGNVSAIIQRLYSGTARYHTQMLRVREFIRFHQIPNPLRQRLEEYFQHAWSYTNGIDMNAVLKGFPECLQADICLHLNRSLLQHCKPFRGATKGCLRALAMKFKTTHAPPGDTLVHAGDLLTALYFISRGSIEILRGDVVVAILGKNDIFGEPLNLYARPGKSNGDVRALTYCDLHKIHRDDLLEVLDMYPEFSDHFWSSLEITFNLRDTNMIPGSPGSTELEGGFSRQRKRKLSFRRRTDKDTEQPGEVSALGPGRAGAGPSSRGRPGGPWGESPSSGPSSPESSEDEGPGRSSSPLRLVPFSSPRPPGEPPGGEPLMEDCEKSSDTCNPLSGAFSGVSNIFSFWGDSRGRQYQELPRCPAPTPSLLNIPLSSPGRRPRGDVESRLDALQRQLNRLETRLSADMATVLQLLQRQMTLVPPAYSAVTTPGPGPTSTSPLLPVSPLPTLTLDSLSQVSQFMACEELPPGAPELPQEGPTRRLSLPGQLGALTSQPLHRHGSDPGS

SMILES	hERG current change (%, negative = inhibition) at 10uM [%]
O=C(CSc1nc2ccccc2nc1SCC(=O)N1CCOCC1)N1CCOCC1	-5.85
CC(=O)/C(N=Nc1cccc(C(F)(F)F)c1)=C(\C)O	26.1
COc1ccc(CCNC(=O)C2(c3ccccc3)CC2)cc1	-0.44
Cc1ccc(-c2nc(C(=O)NC3CCCCCC3)no2)cc1	2.66
COc1cc(O)sc1C=Nc1ccc(Cl)cc1Cl	7.62
CCN(CC)S(=O)(=O)c1ccc(N2C(=O)CC2(/C=C/c2ccccc2)C(=O)NC2CCCC2)cc1 (centres unmarked)	4.58
O=C(Nc1cccc(Cl)c1)c1nc[nH]c1C(=O)N1CCc2ccccc2C1	-15.6
CCOC(=O)N1CCOCCOCCN(C(=O)OCC)CCOCC1	10.2
Cc1ccc(C)c(-n2nnnc2SCC(=O)NCCC2=CCCCC2)c1	-7.52
Cc1cccc(C)c1NC(=S)N1CCCN(Cc2ccc(F)cc2)C1	12.6
Cc1ccc(C)c(OCC(=O)Nc2nc3ccc([N+](=O)[O-])cc3s2)c1	-6.92
C=C(C)[C@@H]1CC=C(CN2CCN(Cc3ccccc3)CC2)CC1	-25.3
CCOC(=O)C1CCCN(C(=O)c2cc(Cl)ccc2Cl)C1 (centres unmarked)	2.38
CCn1nc(C(=O)Nc2ccccc2N2CCCC2)c2ccccc2c1=O	-12.7
Cc1oc2ncnc(N)c2c1C	8.52
Cc1cccc(N2CCN(C(c3ccccc3)c3nnnn3C(C)(C)C)CC2)c1C (centres unmarked)	17.7
C=CCc1ccc(OC)c(OC)c1	23.8
CCC(=O)Nc1cccc(NC(=O)c2ccccc2Cl)c1	0.643
Cc1ccc(S(=O)(=O)NCCC2(C(C)C)CCOC(C)(C)C2)cc1 (centres unmarked)	-17.9
CC1CN(C(=O)c2cc(S(=O)(=O)N3CCCCC3)ccc2Cl)CC(C)O1 (centres unmarked)	-4.83
CCN1C(=O)CC2(C[N+]3(C)CCC2CC3)C1=O.[Br-] (centres unmarked)	5.23
Cc1noc(C)c1COC(=O)c1cccc(S(=O)(=O)N2CCOCC2)c1	4.24

SMILES	hERG current change (%, negative = inhibition) at 10uM [%]
O=S1(=O)[C@H]2C[C@@H]3CC[C@]2(CN1Cc1cccc(F)c1)O3	4.83
O=S(=O)(c1ccccc1)N1CCC(n2nnc3cc(F)ccc32)CC1	-27.7
Cc1ccc(-n2c(N)c(C(=O)N3CCCCC3)sc2=S)cc1	-16.8
CCOC(=O)C1CCN(C(=O)c2cccnc2Cl)CC1	2.15
COc1ccc(S(=O)(=O)Cc2ccc(C(=O)N3CCN(c4cc(C)ccc4C)CC3)o2)cc1	-8.36
CCC1CCCCN1CCCNC(=O)CNC(=O)c1nn(-c2ccc(OC)cc2)c(=O)c2ccccc12 (centres unmarked)	-31.9
COc1ccc(C(=O)OCC(=O)NC2CCCC2)cc1OC	7.67
CCCn1c(=S)[nH]c2cc(C(=O)N3CCc4ccccc43)ccc2c1=O	17.7
COCc1cc(Sc2ccc(Br)cc2)nc(-c2ccccc2)n1	12.7
CC(C)Oc1ccc(CNC(=O)C2CCCN(S(=O)(=O)N3CCOCC3)C2)cc1 (centres unmarked)	-20.8
Cc1cccc(OCC(=O)O/N=C(\N)c2ccc(Cl)cc2)c1	21.6
CCn1c(C)nc2cc(S(=O)(=O)N3CCCC3)ccc21	1.8
CN(C(=O)C1CCOC1)c1nnc(-c2cccnc2)s1 (centres unmarked)	5.06
COc1ccc(C(=O)N2N=C(c3cccs3)CC2c2ccccc2O)cc1 (centres unmarked)	-18.3
COc1ccc(C2C(C#N)=C(N)N(Nc3ccccc3)C3=C2C(=O)CC(C)(C)C3)cc1C (centres unmarked)	-1.35
O=C(CN1C(=O)NC2(CCCCC2)C1=O)Nc1ccccc1N1CCCCC1	-46.6
Cc1c(Cl)c([N+](=O)[O-])nn1CCCC(=O)N(Cc1ccccc1)Cc1ccccc1	-28.7
CCCC(=O)N1CCN(S(=O)(=O)c2cc(Cl)ccc2OC)CC1	-12.5
CC(C)(C)C(=O)N1CCN(c2ccnc3cc(Cl)ccc23)CC1	-73.9
COc1ccc(S(=O)(=O)NCCC(=O)NCc2cccs2)cc1	-0.129
Cc1c(OCC(=O)N2CCN(c3ccccc3)CC2)ccc2c3c(c(=O)oc12)CCCC3	19.5
CC[C@H](C)[C@H](NC(N)=O)C(=O)Nc1ccc2c(c1)OCO2	16.1
